Paper PMC4336329 (PLoS ONE, 2015)
Among all 310,000 compounds or so, about 14,000 (4.5%) showed an effect of 50% or more. The effect is printed as a negative number. This is one part of the list.

biological target: human ether-à-go-go-related gene (hERG) potassium channel (human, UniProt Q12809); test: primary screen, population patch clamp on CHO cells stably expressing hERG
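Also: peak tail current of the secondary pulse compared with the same well before compound.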

human ether-à-go-go-related gene (hERG) potassium channel, sequence (Q12809 whole entry, looked up): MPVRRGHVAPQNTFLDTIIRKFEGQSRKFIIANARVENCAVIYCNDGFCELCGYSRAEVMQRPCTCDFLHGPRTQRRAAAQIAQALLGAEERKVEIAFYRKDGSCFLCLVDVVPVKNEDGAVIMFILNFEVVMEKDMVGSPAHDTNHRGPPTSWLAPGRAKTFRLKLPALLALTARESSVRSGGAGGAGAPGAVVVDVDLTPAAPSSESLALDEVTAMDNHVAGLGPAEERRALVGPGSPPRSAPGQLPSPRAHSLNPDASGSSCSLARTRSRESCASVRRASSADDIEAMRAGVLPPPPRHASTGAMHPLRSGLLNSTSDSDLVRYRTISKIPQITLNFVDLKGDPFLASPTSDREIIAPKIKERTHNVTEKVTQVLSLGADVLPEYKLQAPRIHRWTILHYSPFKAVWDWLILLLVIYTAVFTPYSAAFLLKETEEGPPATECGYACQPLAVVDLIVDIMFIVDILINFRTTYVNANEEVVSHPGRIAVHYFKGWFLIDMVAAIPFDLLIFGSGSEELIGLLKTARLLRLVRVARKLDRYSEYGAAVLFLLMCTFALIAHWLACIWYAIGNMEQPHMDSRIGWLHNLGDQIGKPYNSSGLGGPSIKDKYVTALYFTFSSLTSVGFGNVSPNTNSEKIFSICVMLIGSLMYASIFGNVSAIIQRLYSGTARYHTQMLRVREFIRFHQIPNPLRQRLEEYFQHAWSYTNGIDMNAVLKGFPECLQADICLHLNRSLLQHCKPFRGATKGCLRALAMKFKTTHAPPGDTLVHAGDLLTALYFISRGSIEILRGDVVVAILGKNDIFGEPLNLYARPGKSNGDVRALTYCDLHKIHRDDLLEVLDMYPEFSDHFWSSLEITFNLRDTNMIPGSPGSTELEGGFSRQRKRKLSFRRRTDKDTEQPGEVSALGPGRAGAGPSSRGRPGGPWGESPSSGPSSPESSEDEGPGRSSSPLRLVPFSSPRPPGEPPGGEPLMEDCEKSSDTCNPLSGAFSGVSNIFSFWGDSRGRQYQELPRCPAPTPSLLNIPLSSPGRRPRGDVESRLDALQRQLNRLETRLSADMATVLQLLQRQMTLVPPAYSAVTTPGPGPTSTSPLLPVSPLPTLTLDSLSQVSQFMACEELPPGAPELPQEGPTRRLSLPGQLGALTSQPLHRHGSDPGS

Row | Structure (SMILES) | hERG current change (%, negative = inhibition) at 10uM
1 | COc1ccc(NC(=O)CSc2ncnc3c2cnn3CCc2ccccc2)cc1 | -4.31%
2 | COCCn1nnnc1CN1CCC(NC(=O)Nc2cccc(OC)c2)CC1 | 8.3%
3 | CCN(C(=O)COC(=O)/C=C/c1c(C)nn(Cc2ccc(C)cc2)c1C)C1CCS(=O)(=O)C1 (stereo not drawn) | -7.41%
4 | Cc1c(CNCCc2ccc(Cl)cc2)c(C(=O)O)c(C)n1Cc1ccccc1 | -50.1%
5 | CCOC(=O)Cc1cnc(NC(=O)CSc2nc(N)cc(=O)[nH]2)s1 | 30.6%
6 | O=C(CC1SC(=NCCc2ccccc2)N(/N=C/c2cccs2)C1=O)Nc1ccc(Cl)cc1 (stereo not drawn) | 19.8%
7 | COc1ccc(C2(C(=O)Nc3ccc(S(=O)(=O)Nc4nc(C)cc(C)n4)cc3)CCCC2)cc1OC | -0.893%
8 | COC(=O)C1=C(C(=O)c2ccccc2)C(c2ccc(O)c(OC)c2)n2nnnc2N1 (stereo not drawn) | 11.5%
9 | CCC(=O)NC(Nc1ncc(C)s1)(C(=O)OC)C(F)(F)F (stereo not drawn) | -2.4%
10 | CCCCN(CC)CCNC(=O)CN(C)S(=O)(=O)c1ccc2c(c1)c(=O)n(C)c(=O)n2C | 7.42%
11 | O=C(NCCN1CCCCC1)/C(=N\O)c1ccccc1 | 5.35%
12 | Fc1ccc(COc2ccc(-c3nnco3)cc2)c(Cl)c1 | -0.85%
13 | O=c1[nH]c(=S)n(CCC2=CCCCC2)c(O)c1/C=N/Nc1ccccc1 | -7.83%
14 | FC(F)(F)c1ccncc1-c1nnnn1-c1ccc(Cl)cc1 | -42.3%
15 | COc1ccccc1/C=C/CN1CCSCC1 | -3.74%
16 | O=C(CSc1nc2ccc(Cl)cc2[nH]1)Nc1ccc2c(c1)CCC2 | 15.7%
17 | CCN(CC)C(=O)CC(c1ccc(N(C)C)cc1)c1c(OC)cc(OC)c2ccc(=O)oc12 (stereo not drawn) | -2.87%
18 | O=C1CCC(C(=O)NCCN2C(=O)S/C(=C\c3cccnc3)C2=O)=NN1 | 2.26%
19 | COc1cccc(OCC(O)CN2CCC(CN3C(=O)c4cccc5cccc(c45)C3=O)CC2)c1.Cl (stereo not drawn) | -72.3%
20 | COc1ccc(OC)c(NC(=O)Cn2c(=O)n(CC3CCCO3)c(=O)c3cc(OC)c(OC)cc32)c1 (stereo not drawn) | -2.77%
21 | CCOP(=O)(OCC)C(C)(C)NC(=O)C(Cl)(Cl)Cl | 12.1%
22 | Cc1cc(-c2ccc(S(=O)(=O)NCc3ccc(F)cc3)cc2)on1 | -5.39%

Row | Structure (SMILES) | hERG current change (%, negative = inhibition) at 10uM
23 | Cc1cccc(OCC(=O)Nc2cccc(C(=O)NCC(C)C)c2)c1 | -17.4%
24 | Cc1cc(C)c2nc(-c3ccccn3)cc(C(=O)NCCc3ccc(S(N)(=O)=O)cc3)c2c1 | 17.2%
25 | Cc1cc(NC(=O)CSc2nc(CCC3CCCC3)nc3ccccc23)no1 | -19.1%
26 | O=C1CCC(C(=O)N(CCO)Cc2ccccc2)CN1CC1CCCCC1 (stereo not drawn) | 11.7%
27 | O=C(OCc1csc(-c2ccccc2)n1)c1cccs1 | -1.71%
28 | CC1CCCC(C2(O)C(=O)Nc3ccccc32)C1=O (stereo not drawn) | 23.4%
29 | CCCNC(=O)Cn1cnc2sc(C(=O)Nc3ccc4c(c3)OCO4)c(C)c2c1=O | 5.53%
30 | Cc1c(CN2CCC(Oc3ccc(C(=O)N4CCCCC4)cc3)CC2)cnn1C | -0.372%
31 | O=C(OCCN=C1NS(=O)(=O)c2ccccc21)c1cccnc1 | 10.8%
32 | COc1cc(C2Nc3ccccc3NC3=C2C(=O)CC(C)(C)C3)cc(OC)c1OC (stereo not drawn) | 10.6%
33 | CCOc1ccc(NC(=S)Nc2ccc(OC(F)(F)F)cc2)cc1 | 11.3%
34 | O=C1NC(=O)C(=Cc2cn(CCOc3ccc4c(c3)OCO4)c3ccccc23)C(=O)N1 | 14.9%
35 | N#Cc1nc(-c2ccc(F)cc2)oc1NCc1ccco1 | 4.98%
36 | CCOC(=O)N1CCN(S(=O)(=O)c2ccc(C)c(C)c2)CC1 | -5.18%
37 | O=C(NCCCCNC(=O)c1ccc(F)cc1)c1ccc(F)cc1 | 13.3%
38 | Cc1ccc(S(=O)(=O)c2cc3c(=O)n4cccc(C)c4nc3n(C3CCCCC3)c2=N)cc1 | 15.7%
39 | CCn1c(=O)c2c3c(sc2n(C)c1=O)CCC3 | 1.36%
40 | CC(OC(=O)c1cccc(-n2cnnn2)c1)c1nc2ccccc2c(=O)[nH]1 (stereo not drawn) | -35.4%
41 | Cc1ccnc(SCc2cc(=O)c(OC(=O)c3ccc(Br)o3)co2)n1 | -12.6%
42 | CC1CCc2sc3c(c2C1)c(=O)n(CC(=O)O)c(=O)n3Cc1ccc(Cl)cc1 (stereo not drawn) | 8.22%
43 | COc1c(C)cc(C(=O)C2CCCN(Cc3ccccn3)C2)cc1C (stereo not drawn) | -16.5%
44 | O=S(=O)(c1ccc(NC(=S)NN=C(C2CC2)C2CC2)cc1)N1CCOCC1 | 13.8%

Row | Structure (SMILES) | hERG current change (%, negative = inhibition) at 10uM
45 | CSCC(NS(=O)(=O)c1ccc(C)cc1)C(=O)O (stereo not drawn) | 8.98%
46 | CCSc1nnc2c(Cl)cc(Cl)cn12 | 5.28%
47 | CCC(C)OC1OC(CO)C(O)C(O)C1NC(C)=O (stereo not drawn) | 16%
48 | COc1cc2c(cc1OC)CN(C(=O)c1ccncc1)CC2 | 12.4%
49 | CCCCn1c(N)c(N(Cc2ccccc2OC)C(=O)CCSC)c(=O)[nH]c1=O | -6.99%
50 | Cc1ccc(SCCC(=O)Nc2ccccc2C(=O)NC(C)C)cc1 | -14.7%
51 | CCc1nnc(NC(=O)CSc2ncnc3c2cnn3-c2ccc(OC)cc2)s1 | 11.7%
52 | CCn1c(O)c(N=NC(=O)CNC(=O)/C=C/c2ccco2)c2ccccc21 | 0.357%
53 | COc1cc(CNc2ccc3[nH]c(=O)[nH]c3c2)ccc1OCc1c(F)cccc1Cl | 14.5%
54 | O=C(Nc1ccc(N2CCCC2)cc1)C(Cl)c1ccccc1 (stereo not drawn) | -6.48%
55 | CN=C1S/C(=C\c2ccc(N3CCOCC3)cc2C)C(=O)N1C | 31.8%
56 | O=C(O)c1ccc(-c2sc(Nc3ccccc3)n[n+]2-c2ccc(F)cc2)cc1.[Cl-] | 2.83%
57 | CC(C)(C)NC(=O)c1ccccc1NC(=O)c1ccc2c(c1)OCO2 | 4.8%
58 | C=CCn1c(SCC(=O)NCc2ccccc2)nnc1-c1cc(Br)ccc1O | -30.4%
59 | Cn1c(=O)c2c(ncn2CC(=O)N2CCN(S(=O)(=O)c3ccccc3)CC2)n(C)c1=O | 0.716%
60 | Cc1ccc(CNC(=O)CCCc2ccccc2)cc1 | -21.3%
61 | COc1cc(Br)c(CCNC(=O)Cc2ccccc2)cc1OC | -18.4%
62 | COC(=O)c1cccc(NC(=O)c2cccnc2)c1.Cl | -19.7%
63 | O=C(Cc1n[nH]c(=O)c2ccccc12)NCc1ccccc1 | 3.17%
64 | CCOC(=O)/C(C#N)=C/c1cc(C)n(-c2ccc(Br)cc2)c1C | 9.5%
65 | CC(=O)c1cc2c(cc1NC(=O)CSc1nc3ccc(C)cc3[nH]1)OCO2 | -21%
66 | NC(=O)CC(NC(=O)c1cccc(Br)c1)c1ccc(N2CCN(c3ccc(F)cc3)CC2)c([N+](=O)[O-])c1 (stereo not drawn) | -2.08%

Row | Structure (SMILES) | hERG current change (%, negative = inhibition) at 10uM
67 | O=C(NCCN1CCOCC1)Nc1ccccc1 | -6.63%
68 | CC1CC(=O)c2c(cc3c(-c4c(O)cc(O)c5c(O)c6c(cc45)OC(C)CC6=O)c(O)cc(O)c3c2O)O1 (stereo not drawn) | -11.5%
69 | CC(SC1=NCCN1S(C)(=O)=O)c1ccccc1 (stereo not drawn) | 11.3%
70 | Cc1cc(=O)[nH]c(SCC(=O)Nc2nc(-c3ccccc3)c(-c3ccccc3)o2)n1 | 3.76%
71 | CCn1c(SCC(N)=O)nc2sc3c(c2c1=O)CCN(C)C3 | 16.2%
72 | O=C(COc1ccc2ccccc2c1)NCCc1ccc2c(c1)OCCO2 | -17.1%
73 | COc1ccc(-n2c(=O)cc(N3CCN(c4ccccc4)CC3)[nH]c2=O)cc1 | 20%
74 | COc1cccc(-c2cc(C(=O)NC3CCCC3)no2)c1 | -6.34%
75 | CNC(=O)C(NC(=O)c1ccccc1)=C(C)C | -8.15%
76 | COc1ccc(N(CC(=O)N2CCN(Cc3ccccc3)CC2)S(C)(=O)=O)c(OC)c1 | 3.99%
77 | O=C(CN1C(=O)c2ccccc2C1=O)N1CCCCC1 | -6.26%
78 | COc1ccc(-c2csc(N(CCCN(C)C)C(=O)c3ccccc3Cl)n2)cc1.Cl | -67.3%
79 | COc1ccc(NC(=O)CCN2CCN(c3ccc(F)cc3)CC2)cc1 | -33%
80 | O=C(NCc1cccc2[nH]ccc12)C1CCC(=O)N(CCc2ccccc2)C1 (stereo not drawn) | 17.4%
81 | COc1cccc(NC(=O)COC(=O)c2c(C)noc2C)c1 | 6.67%
82 | C=C(C)C1CC=C(C)/C(=N/NC(=O)CCCNc2cccc(C)c2)C1 (stereo not drawn) | 9.43%
83 | O=C(NCc1ccccc1)Nc1cccn(Cc2ccccc2Cl)c1=O | 18.8%
84 | O=C(Nc1cccc(C(F)(F)F)c1)C1CC(=O)N(CCc2ccccc2)C1 (stereo not drawn) | -22.9%
85 | COCCCNC(=O)c1ccc(C2SCC(=O)N2Cc2ccco2)cc1 (stereo not drawn) | 8.41%
86 | COc1ccc(-c2nc(C#N)c(N3CCC(C(N)=O)CC3)o2)cc1 | -15.6%
87 | Cc1ccccc1C(=O)NC(NC(=S)Nc1ccc(S(N)(=O)=O)cc1)C(Cl)(Cl)Cl (stereo not drawn) | 19.3%
